Source: the supplement of paper PMC3334620
Over roughly 33,000 sequences, “E-score (-0.5 to 0.5)” has its median near -0.053; the highest 2% begin near 0.37. This is one part of the list.

Each sequence was assayed against Hap1 (UniProt P0CE41) (assay: PBM E-score (8-mer binding enrichment) (E-score (-0.5 to 0.5)); higher = stronger / more preferred TF binding; most listed sequences are background and not binding sites). Details: protein concentration: 200 nM; construct: GST-DNA-binding domain.
How it was run: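 Masliner-normalised scans of fluorescent anti-GST signal were the basis for scoring. That signal came from GST-tagged yeast transcription factors applied at about 100-200 nM to double-stranded universal all-10-mer Agilent arrays on fresh or once-stripped slides. Each ungapped eight-base word, pooled with its reverse complement, received an E-score from the Universal PBM Analysis Suite.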

UniProt P0CE41, sequence (P0CE41 whole entry, the tested form may be a part): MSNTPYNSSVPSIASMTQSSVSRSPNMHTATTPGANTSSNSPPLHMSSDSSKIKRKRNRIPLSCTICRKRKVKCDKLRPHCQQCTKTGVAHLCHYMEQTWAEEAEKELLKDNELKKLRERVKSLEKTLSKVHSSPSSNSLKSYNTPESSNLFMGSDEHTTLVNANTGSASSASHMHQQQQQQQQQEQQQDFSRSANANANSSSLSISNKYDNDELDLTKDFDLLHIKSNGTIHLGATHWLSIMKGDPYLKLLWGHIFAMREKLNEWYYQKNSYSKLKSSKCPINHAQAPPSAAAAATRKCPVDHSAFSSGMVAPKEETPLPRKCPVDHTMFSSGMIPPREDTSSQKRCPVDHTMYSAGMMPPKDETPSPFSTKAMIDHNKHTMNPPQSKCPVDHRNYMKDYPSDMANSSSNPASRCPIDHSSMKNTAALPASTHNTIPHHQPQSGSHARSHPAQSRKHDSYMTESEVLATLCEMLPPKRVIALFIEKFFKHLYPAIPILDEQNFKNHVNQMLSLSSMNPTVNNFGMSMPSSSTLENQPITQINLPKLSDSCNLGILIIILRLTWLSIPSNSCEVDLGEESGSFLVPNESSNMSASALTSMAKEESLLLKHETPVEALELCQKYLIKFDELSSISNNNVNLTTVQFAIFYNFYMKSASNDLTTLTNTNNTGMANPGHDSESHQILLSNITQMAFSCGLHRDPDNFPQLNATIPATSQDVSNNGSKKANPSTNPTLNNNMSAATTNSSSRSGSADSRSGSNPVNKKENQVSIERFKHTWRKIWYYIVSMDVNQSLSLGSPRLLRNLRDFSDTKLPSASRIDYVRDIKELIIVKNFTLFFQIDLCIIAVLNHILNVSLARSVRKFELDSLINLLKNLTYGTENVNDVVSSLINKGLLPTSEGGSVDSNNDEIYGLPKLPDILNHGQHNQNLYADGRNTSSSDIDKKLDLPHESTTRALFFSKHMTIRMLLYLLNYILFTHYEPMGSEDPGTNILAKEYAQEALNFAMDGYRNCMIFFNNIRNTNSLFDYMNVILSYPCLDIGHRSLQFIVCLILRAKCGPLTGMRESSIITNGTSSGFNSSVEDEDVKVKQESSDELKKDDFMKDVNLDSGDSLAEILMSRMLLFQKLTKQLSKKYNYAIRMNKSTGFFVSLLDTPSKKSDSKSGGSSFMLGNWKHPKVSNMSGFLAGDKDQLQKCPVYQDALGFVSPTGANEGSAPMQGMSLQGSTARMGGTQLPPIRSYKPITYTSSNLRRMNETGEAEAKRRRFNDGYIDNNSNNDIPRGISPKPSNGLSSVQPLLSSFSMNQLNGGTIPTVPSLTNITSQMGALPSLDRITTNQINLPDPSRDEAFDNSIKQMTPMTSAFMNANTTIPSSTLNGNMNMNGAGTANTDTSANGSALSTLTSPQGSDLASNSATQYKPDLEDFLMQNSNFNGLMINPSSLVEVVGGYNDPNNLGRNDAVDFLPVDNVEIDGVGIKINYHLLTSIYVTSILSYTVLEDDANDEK

Row | Sequence | PBM E-score
1 | CCGATAGA | 0.405
2 | CCTTTAGA | -0.213
3 | CAACAACG | -0.209
4 | CAGTAAAA | -0.088
5 | ATCGTGAA | -0.0494
6 | ACGGTATC | 0.113
7 | ATTCATAA | -0.0791
8 | CCGCACAG | 0.118
9 | CGGCAAGC | 0.152
10 | CCCTGGCG | -0.132
11 | CTCGTGCC | -0.0817
12 | AGGCAATG | -0.17
13 | CCATGACA | -0.186
14 | CTGCTGGA | -0.231
15 | ATAAACTC | 0.134
16 | ACCTATTA | -0.146
17 | ACAAGCCA | -0.195
18 | CAGTATCG | 0.115
19 | CGACATTC | -0.0511
20 | AGAGTACT | -0.169
21 | AGGGTGAG | -0.217
22 | CAACTTGG | -0.0913
23 | AGGGTGAC | -0.116
24 | GACCTTAA | -0.0906
25 | CTATATCC | 0.202

Row | Sequence | PBM E-score
26 | ATATCCTC | 0.0211
27 | AACTATCT | -0.0682
28 | GAGGTACA | -0.101
29 | AAGGGGTC | -0.31
30 | GCAGACGC | -0.0992
31 | CTCGTCGA | -0.251
32 | GCCTCCCC | -0.0953
33 | AACTGAAT | -0.215
34 | GTAATCAA | -0.0734
35 | CTATTCGC | 0.0149
36 | AGTCCTGC | -0.128
37 | CTGAGCAC | -0.14
38 | CCCCCTGC | -0.157
39 | AATCAATT | 0.102
40 | AGGATACC | 0.0145
41 | AGGCACTA | -0.11
42 | AGCTAGCG | 0.0898
43 | ATACGTCC | 0.272
44 | AGTTTAGA | 0.0957
45 | AAACACGT | -0.132
46 | AGGTGGAA | 0.0549
47 | CCTATAAG | -0.113
48 | ACAAGTCG | -0.246
49 | ACAGATCC | 0.178
50 | ATTGGCTA | -0.102

Row | Sequence | PBM E-score
51 | CTTTATCC | 0.181
52 | GTAACGTA | -0.188
53 | CAAGCAAC | -0.171
54 | ACCGAAGA | 0.207
55 | CTCGGCAA | 0.258
56 | AATTCTAG | -0.112
57 | ATGATACG | -0.195
58 | CTCTGGCC | -0.0719
59 | GTGACCAA | -0.172
60 | GACGGGAA | 0.0257
61 | GAAGTCCC | -0.0489
62 | CATTTCTA | -0.0138
63 | AGAGTTGA | -0.198
64 | AGATTTCG | 0.229
65 | TGTACCAA | -0.187
66 | ACCGGCCG | 0.439
67 | GAACCCAC | 0.0534
68 | GACGTATC | 0.033
69 | CAATCTCG | 0.00508
70 | AAGGACGA | -0.0846
71 | ATGCTCCA | 0.024
72 | GAATTCGC | 0.103
73 | AAAAGAGG | -0.216
74 | CGACGCCG | 0.246
75 | GCTTTGAC | 0.0793

Row | Sequence | PBM E-score
76 | ACCGACAC | 0.21
77 | ACCGGGCC | 0.373
78 | AGGTATAC | -0.221
79 | TAGTAGGA | -0.15
80 | ACTAACAA | -0.15
81 | TCCAACAA | -0.132
82 | GACGTGCA | -0.0662
83 | CCCTACCC | -0.107
84 | AGATGACT | -0.0956
85 | AATATTCG | 0.0499
86 | AGGCCTCG | 0.00046
87 | GCAAACGC | 0.116
88 | TCAAGTGA | -0.225
89 | CTACGGGC | 0.0493
90 | TCTCAGAA | -0.264
91 | CAATGCGC | -0.0309
92 | TGGGAAAA | -0.0972
93 | AAGCATTA | -0.168
94 | AATATTGA | 0.00924
95 | TAATTGTA | -0.138
96 | AGAACCTC | -0.0701
97 | CTGGGGAA | -0.231
98 | ATCATCAC | -0.31
99 | CCGTAGCG | 0.27
100 | ACACCGTA | 0.106

Row | Sequence | PBM E-score
101 | ACTTCGCA | -0.164
102 | CCTCATCC | -0.13
103 | CAGGTAGC | -0.0526
104 | CGTCTACA | -0.242
105 | AACGGATG | 0.275
106 | TGGCCGAA | 0.261
107 | GTTCGGTA | 0.249
108 | CTCTCATA | -0.105
109 | ACTTTGTG | -0.0673
110 | GTTACATA | -0.0531
111 | ACCAAATA | 0.0853
112 | CGCCACGA | -0.0182
113 | GCCTGCAC | -0.137
114 | ACGCGGGA | 0.14
115 | AGTCGCTC | -0.115
116 | CAGCATTC | -0.162
117 | ACTTCTGG | -0.297
118 | ATCTGAAC | -0.0804
119 | CGATGCTA | 0.0547
120 | CATGACAC | -0.14
121 | CAAGTCTG | -0.366
122 | CCAACATA | 0.0596
123 | CCCTAAGC | -0.179
124 | CGTGCGCA | -0.00181
125 | CAGGGTGA | -0.259

Row | Sequence | PBM E-score
126 | ATCGTCCC | 0.0149
127 | CCCTCCAG | -0.00678
128 | AACCTCGC | -0.0117
129 | GACCGAGA | 0.382
130 | GTTGCCGA | 0.241
131 | AAGCGTCG | -0.0453
132 | CCTACGCA | -0.132
133 | GCCATCAA | -0.408
134 | CGTCTTCC | 0.0353
135 | TAACTTGA | -0.308
136 | AGCCTACT | -0.137
137 | CTCCATTA | -0.0758
138 | AGGCAGCA | -0.0573
139 | AAGGTGAT | -0.114
140 | CGTGCCAG | -0.148
141 | AATATAAT | -0.0851
142 | CCGACGAC | 0.272
143 | ACCACAAA | 0.00509
144 | CCTTAGAC | -0.144
145 | CATTGAAG | -0.193
146 | TTAGCGAA | 0.0366
147 | CGGCTCGC | 0.189
148 | CAGCAAAC | -0.11
149 | CCCTACTA | -0.0173
150 | GATATGTA | 0.021

Row | Sequence | PBM E-score
151 | CGATACGA | 0.196
152 | ACTTTTAT | 0.0486
153 | AATAAGAT | -0.0121
154 | TAGCGTGA | -0.256
155 | TGGGTACA | -0.13
156 | ATCATTTG | 0.0381
157 | GGGTAATA | -0.00588
158 | CCCCTACC | -0.211
159 | ACAAAAAG | -0.0481
160 | ACAAGCAT | -0.0294
161 | GAAGTAGA | -0.0934
162 | ATGCTGAC | -0.253
163 | CGATGCTC | 0.152
164 | TAAACGGA | 0.236
165 | TCACTGCA | -0.174
166 | AGCCACAG | -0.189
167 | CGTTATGC | -0.0736
168 | CTTACTGA | -0.137
169 | ATCTACAC | -0.128
170 | CCCGATAG | 0.414
171 | ACTTTGTA | -0.211
172 | CGGCCTAC | 0.162
